# The other results are listed elsewhere or left out. One pool of 16,384 single-stranded DNAs met each Rep nickase domain in vitro at 3 µM enzyme and 37 °C for 1 h; the strands have 90 letters, of which the middle is given. The score is log2 (uncut reads / reads without enzyme); uncut sequences lie near 0, cut ones below; no hit call is given. Shares of all reads are compared; values above 0 arise when much of the pool is cut.
# Columns and labels:
# Experiment in all cases: uncleaved DNA left, log2 of reads against the no-enzyme library (log2 ratio); higher = less cleavage (more negative = more Rep cleavage of the k-mer); sequences stand for … in CTCGTCCG…ACCGGAGA
# [1] = test system: T1, Rep nickase domain of Muscovy duck circovirus
# T1 sequence (Rep 1-111, printed without the tag): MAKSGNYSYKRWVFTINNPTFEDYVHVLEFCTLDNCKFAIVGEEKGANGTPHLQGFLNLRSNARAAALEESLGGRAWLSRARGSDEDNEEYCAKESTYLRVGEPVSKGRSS
# Protocol: (§1)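 A pool of 90-nt single-stranded DNAs with seven random bases just before the constant AC of the nick site (name = the seven bases) was cut by 3 µM recombinant His6-SUMO-tagged Rep nickase domain (300 nM DNA, 50 mM HEPES pH 8.0, 50 mM NaCl, 1 mM MnCl2, 1 h, 37 °C, three replicates). Uncut DNA was amplified and sequenced.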
# [2] = test system: T2, Rep nickase domain of banana bunchy top virus
# T2 sequence (Rep 1-94, printed without the tag): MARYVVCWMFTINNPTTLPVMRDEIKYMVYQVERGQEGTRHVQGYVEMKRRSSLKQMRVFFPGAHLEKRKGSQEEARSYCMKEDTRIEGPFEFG
# Protocol: as §1
# [3] = test system: T3, Rep nickase domain of cabbage leaf curl virus
# T3 sequence (Rep 1-116, printed without the tag): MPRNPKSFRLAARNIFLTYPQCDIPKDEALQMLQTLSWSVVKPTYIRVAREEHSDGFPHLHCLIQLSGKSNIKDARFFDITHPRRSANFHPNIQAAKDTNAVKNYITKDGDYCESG
# Protocol: as §1
# [4] = test system: T4, Rep nickase domain of chickpea chlorotic dwarf virus
# T4 sequence (Rep 1-124, printed without the tag): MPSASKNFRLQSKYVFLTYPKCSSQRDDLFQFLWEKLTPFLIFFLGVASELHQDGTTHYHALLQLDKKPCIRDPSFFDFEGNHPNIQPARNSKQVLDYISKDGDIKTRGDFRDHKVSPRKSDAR
# Protocol: as §1
# [5] = test system: T5, Rep nickase domain of faba bean necrotic yellows virus
# T5 sequence (Rep 1-98, printed without the tag): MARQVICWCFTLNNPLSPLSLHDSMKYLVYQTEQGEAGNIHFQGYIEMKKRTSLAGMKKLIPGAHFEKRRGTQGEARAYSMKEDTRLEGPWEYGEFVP
# Protocol: as §1
# [6] = test system: T6, Rep nickase domain of maize striate mosaic virus
# T6 sequence (Rep 1-117, printed without the tag): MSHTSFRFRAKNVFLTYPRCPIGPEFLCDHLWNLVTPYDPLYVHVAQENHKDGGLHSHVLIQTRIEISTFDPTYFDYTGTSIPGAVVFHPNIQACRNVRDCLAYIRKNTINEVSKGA
# Protocol: as §1
# [7] = test system: T7, Rep nickase domain of porcine circovirus 2
# T7 sequence (Rep 2-116, printed without the tag): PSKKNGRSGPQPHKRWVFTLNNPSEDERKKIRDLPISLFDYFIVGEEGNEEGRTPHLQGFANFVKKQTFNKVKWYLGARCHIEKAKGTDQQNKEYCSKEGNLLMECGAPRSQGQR
# Protocol: as §1
# [8] = test system: T8, Rep nickase domain of tomato yellow leaf curl virus
# T8 sequence (Rep 1-136, printed without the tag): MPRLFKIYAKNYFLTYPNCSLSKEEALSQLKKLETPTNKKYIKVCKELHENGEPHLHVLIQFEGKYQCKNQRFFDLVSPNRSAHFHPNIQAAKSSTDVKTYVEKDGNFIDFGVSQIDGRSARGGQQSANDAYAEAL
# Protocol: as §1
# [9] = test system: T9, Rep nickase domain of wheat dwarf virus
# T9 sequence (Rep 1-137, printed without the tag): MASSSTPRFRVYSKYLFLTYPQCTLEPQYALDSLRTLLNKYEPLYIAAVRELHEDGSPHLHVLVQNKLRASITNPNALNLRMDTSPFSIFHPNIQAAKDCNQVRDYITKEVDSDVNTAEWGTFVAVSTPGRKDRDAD
# Protocol: as §1
Sequence,uncleaved DNA left (log2) [1],uncleaved DNA left (log2) [2],uncleaved DNA left (log2) [3],uncleaved DNA left (log2) [4],uncleaved DNA left (log2) [5],uncleaved DNA left (log2) [6],uncleaved DNA left (log2) [7],uncleaved DNA left (log2) [8],uncleaved DNA left (log2) [9]
TTGGAGC,-0.0502,-0.106,-0.164,-0.334,0.0196,-0.821,0.0568,-0.0513,-0.0417
GAGAAAT,0.0907,0.0948,0.681,1.68,0.00298,1.96,-2.57,0.117,0.148
CACTGAA,0.0256,0.0834,-0.0783,0.303,-0.0943,0.485,-1.57,0.00116,0.0872
ACGTTTA,-0.0636,0.0186,-0.325,-1.36,0.121,-0.641,-0.0936,-0.00282,0.000883
AGACGAA,-0.0934,-0.0984,0.337,0.772,-0.0703,0.674,-0.0314,-0.0726,0.0204
CTGACGC,-0.0505,-0.211,-0.367,-0.327,-0.183,-0.834,0.00796,-0.104,-0.0721
AGTGTTA,-0.155,-0.191,0.0178,0.172,-0.217,0.992,-0.648,-0.0379,0.0319
TGCTTGA,0.0603,-0.0489,-0.0296,-0.055,0.0892,-0.488,-0.0371,0.0174,-0.0281
GGTAGTT,-0.151,-0.00335,0.489,1.09,-0.13,1.87,-0.0945,-0.018,-0.00728
GATCCTC,0.0912,0.112,0.193,0.643,-0.0405,0.844,0.0717,0.0769,0.231
CAGCATC,0.0499,0.0749,-0.00381,-0.406,0.0446,-0.567,-0.00915,-0.0129,0.0477
TGCTTCA,-0.0794,0.0397,0.0869,-0.741,0.113,-0.389,-0.226,-0.0742,-0.0738
GACCACT,-0.0133,-0.0378,0.0576,-2.17,-0.0544,0.178,-0.554,0.0364,0.0326
TGAAGGA,0.0951,-0.0176,0.156,0.328,-0.0249,-0.185,0.0896,0.021,0.0891
AAGATGC,0.0469,0.06,-0.164,-0.1,0.144,-0.687,0.167,-0.00398,0.0172
TCGCTGG,-0.026,-0.139,0.105,0.462,0.0659,0.357,0.0566,0.135,-0.0355
CATAACA,0.032,-0.0238,-0.502,-2.54,-0.00058,-0.9,-0.105,0.106,0.00164
TCTTTTT,-3.03,-0.37,-0.0157,-2.04,0.165,-0.539,-3.38,-0.0777,-0.0454
ACCCGAG,-0.0354,0.133,0.869,2.07,0.129,1.45,0.193,0.101,0.181
GCGCTAA,-0.0198,0.0425,0.0868,0.442,0.135,0.338,-0.068,0.0264,0.0836
CGCGGCC,-0.0204,-0.03,-0.133,0.0408,-0.0352,-0.346,-0.026,-0.1,-0.123
AGGAACT,0.0338,0.183,0.25,0.0142,0.0843,1.33,-0.00826,0.119,0.124
AGGTGTC,-0.0497,-0.0475,0.0196,0.319,-0.0199,0.228,0.0155,-0.108,-0.0373
GCATACT,-2.64,-0.0642,-0.48,-2.17,-0.121,-0.291,-2.81,0.0507,-0.0933
GCCTTAT,0.0974,0.177,0.481,0.482,0.257,0.585,-0.399,0.298,0.271
CGACATA,0.137,0.18,0.151,0.626,0.0374,1.27,0.141,0.0597,0.264
ACTACAA,-0.139,-0.102,-0.232,-0.562,-0.0725,-0.778,0.000904,-0.103,0.0183
ACAAAGC,0.113,0.0486,-0.311,-0.226,0.0737,-1.15,0.277,0.107,0.0278
TGGTAGT,-1.04,-0.0128,0.201,0.149,-0.234,0.134,-3.25,0.114,0.0711
CGTCTCC,-0.0517,-0.0198,0.143,0.114,-0.0664,1.17,0.0682,0.0557,-0.00515
